This is one part of the list.
What follows are sequences tested on PfHDP1 homeodomain (GST-tagged) (assay: gcPBM binding intensity (ln(normalized median fluorescence intensity)); higher = stronger DNA binding).
Method in brief: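 After 1 h on an Agilent 4 × 180k array of primer-extended double-stranded 36-bp intergenic genomic probes and negative controls, bound GST-tagged P. falciparum DNA-binding domains were detected with Alexa488 anti-GST antibody and scanned at 488 nm. The domains had been expressed in E. coli, and binding took place in 1× PBS with 1% milk, 0.2 mg/ml BSA, 0.5% salmon testes DNA and 0.03% Triton X-100. Binding intensity is the highest Masliner-normalised natural-log median intensity across replicate spots of either probe orientation.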

| Sequence | gcPBM binding intensity (ln) |
| --- | --- |
| TTAAAAAAAAAAAGGTGTACTATAATTTAATATCAC [XGTACX_site6316] | 6.2 |
| TTTAATTTTTTTTAAACACACACATTACATTCAAAA [CACACA_site7926] | 6.53 |
| TTATATTATGCTTGAATGCACTTTGAAGCACAATCT [GTGCAC_site9789] | 8.09 |
| AATATATAATTTTATAGTACATAATAAAAGAACAGG [XGTACX_site724] | 6.85 |
| TATTCAACATAATATGCACACAAAAATTATGGAACG [CACACA_site8660] | 9.99 |
| ATCACATAAAATATGAATATATATTTTATATATATA [CACACA_negctrl_site340] | 7 |
| TATTTTGTTCTTTCCACACACAAATACAGATATTGT [CACACA_site6097] | 7.03 |
| TCTTATCCATATATTACACACTATAAATAGAAATTA [CACACA_site6274] | 6.74 |
| ATTTGTATATATTAATGTACACACATGCGTATGTTC [XGTACX_site7579] | 6.85 |
| TGGGTAAACAGACACACACACATATAGATTTATATA [CACACA_site7026] | 6.7 |
| CTTCCAATAAAAAATGCACACATTGAAAATATTGAA [CACACA_site2688] | 8.88 |
| AAATTATATGAACATTGTACTTTATATATGTAAGAA [XGTACX_site1611] | 6.62 |
| ACACACATATATACATGTACATATATATATATATAT [XGTACX_site451] | 9.28 |
| TTTTTTTTTTTTTTTATAGTACATTACCAAAAAAAA [CACACA_negctrl_site1197] | 6.48 |
| TTAAAATAAAGAAAATGTACATAAATTAAAATAAAG [XGTACX_site2281] | 6.73 |
| ATTTATTGACTATTTACACACATATTTATTATAATA [CACACA_site1624] | 7.16 |
| TATAAATATAAATATACACACATATATTTATTTATA [CACACA_site6890] | 6.39 |
| AACAGTAACATTGAATGTACTTAATTTTAAGAAAAT [XGTACX_site2971] | 6.21 |
| ACACATAATATGTGTAGTACTTTTTCTTTAACATTA [XGTACX_site1436] | 6.3 |
| ATATATATATATATATGTACTAAGAATTCTTTAAAA [XGTACX_site8476] | 9.48 |
| ATTTATTTATTTATATGTACATATTTAAAGAGTTCA [XGTACX_site7631] | 6.48 |
| TATATTTTGTTCTGTTGTACTAAAAAAATCTTTATA [XGTACX_site8372] | 6.32 |

| Sequence | gcPBM binding intensity (ln) |
| --- | --- |
| TTACTTTTAACAAATGTGCGCAGTTATCACACAGAC | 7.23 |
| ACAAAACAAAAAAACTCACACATATACGGCATGTCA [CACACA_site5608] | 6.61 |
| ATACATATTTTACATTCACACAACAAATTTATATTT [CACACA_site4700] | 7.05 |
| AGGAACAAAATATACTGTACTTTATTATTTTCAAAA [XGTACX_site4421] | 6.24 |
| AACAGACAGAAACACACACACATATATATATATATA [CACACA_site3394] | 9.31 |
| TGTAGTCTGGAGAAAAGTACATAGTATCTGGTAACC [XGTACX_site2025] | 6.29 |
| TAATAAAATATGTACACACATACACCCATATATATA [CACACA_site1220] | 6.7 |
| ATTTTCCAAAATAATTGTACAGGAAAGAAATAATTA [XGTACX_site7424] | 6.54 |
| ATATATTTTAATTGATGTACTTTTTTATGTTAATGA [XGTACX_site4316] | 6.32 |
| ATTATACATATATAAGTGCAATAATGTTTTTTCCTT | 8.87 |
| TATACATATGAAAATACACACATACATACATATATA [CACACA_site8484] | 6.61 |
| AAGGTATATATAACTACACACTTATATATAATCTAA [CACACA_site92] | 6.23 |
| GTAAAAATACAAAAGGTGCTCAAACAATATAATACA | 7.08 |
| TACATACCTATATACACATGCATATTTACATATATT [TGCATGCA_site206] | 7.59 |
| TACATACAGATATATACACACATATATAATATATAT [CACACA_site4376] | 6.84 |
| AAAATTAAATTATAAGCACACACATATATATATATA [CACACA_site9105] | 9.32 |
| TATATAATATATATGACACACATATTTATATAAATA [CACACA_site4054] | 6.28 |
| GAATATTAAACAAACACACACACATATATTTATATA [CACACA_site7563] | 6.78 |
| AATGGATTGATAAGTGGTACACACATATATATTATA [XGTACX_site6086] | 6.47 |
| CTTTAGTTTTTAATGTGTACTGAATTTGAATAGTAG [XGTACX_site7920] | 6.26 |
| CGTATTATTTTATAAACACACAAGGGGGCATGTATA [CACACA_site6489] | 7.82 |
| TTGATATGTACAGGCACACATAAATTTCACAAATAT [CACACA_site3999] | 6.49 |

— the supplement of paper PMC11417369
